In patent publication US20170368144A1 (ALKERMES, published 2017):
Substitutions are numbered along the chain they refer to. In names and notes the source's numbering stands.

T1: IL-10 receptor (two IL-10R1 and two IL-10R2 receptor chains) (UniProt Q61727 17-575; Q61190 20-349, limits assumed)
T1 sequence (looked up) 1: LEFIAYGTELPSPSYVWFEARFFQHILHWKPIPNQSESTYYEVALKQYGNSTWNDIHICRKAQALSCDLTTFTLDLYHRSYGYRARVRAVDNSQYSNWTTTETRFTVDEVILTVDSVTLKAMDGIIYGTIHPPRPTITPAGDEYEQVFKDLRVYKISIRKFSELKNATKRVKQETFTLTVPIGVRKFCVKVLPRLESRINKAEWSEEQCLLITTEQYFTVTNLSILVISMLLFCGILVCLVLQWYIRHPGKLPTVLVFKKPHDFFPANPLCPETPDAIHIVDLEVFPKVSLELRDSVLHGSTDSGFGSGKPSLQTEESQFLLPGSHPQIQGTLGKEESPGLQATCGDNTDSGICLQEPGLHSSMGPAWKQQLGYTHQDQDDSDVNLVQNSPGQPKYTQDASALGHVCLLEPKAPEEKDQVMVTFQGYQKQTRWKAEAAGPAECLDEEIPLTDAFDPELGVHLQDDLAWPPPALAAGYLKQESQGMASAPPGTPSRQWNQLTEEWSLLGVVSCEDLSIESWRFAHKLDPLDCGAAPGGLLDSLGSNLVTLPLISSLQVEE
T1 sequence (looked up) 2: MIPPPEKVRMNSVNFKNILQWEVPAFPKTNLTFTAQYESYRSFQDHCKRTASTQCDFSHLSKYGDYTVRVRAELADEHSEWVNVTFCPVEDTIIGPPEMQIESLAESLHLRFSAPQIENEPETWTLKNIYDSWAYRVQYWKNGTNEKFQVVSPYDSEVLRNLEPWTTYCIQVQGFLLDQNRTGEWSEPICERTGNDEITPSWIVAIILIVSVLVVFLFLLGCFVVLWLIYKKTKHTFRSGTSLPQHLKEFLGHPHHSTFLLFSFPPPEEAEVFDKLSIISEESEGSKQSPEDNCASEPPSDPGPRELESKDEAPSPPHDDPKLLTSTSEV

T2: IL-10R2 receptor chain (UniProt Q61190 20-349, limits assumed)
T2 sequence (looked up): T1 sequence (looked up) 2

B1: I87A:linker:I87A (vIL10 mutant) (Fc fusion)
chain: SPGQGTQSENSCTHFPGNLPNMLRDLRDAFSRVKTFFQMKDQLDNLLLKESLLEDFKGYLGCQALSEMIQFYLEEVMPQAENQDPDAKAHVNSLGENLKTLRLRLRRCHRFLPCENKSKAVEQVKNAFNKLQEKGIYKAMSEFDIFINYIEAYMTMKIRNGGSGGGGSGGSPGQGTQSENSCTHFPGNLPNMLRDLRDAFSRVKTFFQMKDQLDNLLLKESLLEDFKGYLGCQALSEMIQFYLEEVMPQAENQDPDAKAHVNSLGENLKTLRLRLRRCHRFLPCENKSKAVEQVKNAFNKLQEKGIYKAMSEFDIFINYIEAYMTMKIRNGGGGSGGGGSRTVAAPSVFIFPPSDEQLKSGTASVVCLLNNFYPREAKVQWKVDNALQSGNSQESVTEQDSKDSTYSLSSTLTLSKADYEKHKVYACEVTHQGLSSPVTKSFNRGECGGGGSGGGGSGGGGSGGGGSASTKGPSVFPLAPSSKSTSGGTAALGCLVKDYFPEPVTVSWNSGALTSGVHTFPAVLQSSGLYSLSSVVTVPSSSLGTQTYICNVNHKPSNTKVDKRV[human IgG1 Fc cut from this listing]
B2: wtIL-10:linker:I87A (vIL10 mutant) (Fc fusion)
chain: B1 chain with A87I
B3: M22A:linker:M22A (R2 mutant) (Fc fusion)
chain: B1 chain with M22A, A87I, M192A, A257I
B4: I87A:linker:wtIL-10 (vIL10 mutant) (Fc fusion)
chain: B1 chain with A257I
B5: wtIL-10:linker:M22A (R2 mutant) (Fc fusion)
chain: B1 chain with A87I, M192A, A257I
B6: M22A:linker:wtIL-10 (R2 mutant) (Fc fusion)
chain: B1 chain with M22A, A87I, A257I

How the values were obtained:
[1] = molecular target: T1, IL-10 receptor (two IL-10R1 and two …); assay: cell-based or functional assay
[2] = molecular target: T2, IL-10R2 receptor chain; assay: cell-based or functional assay

Binder | MC/9 (pM): EC50, proliferation of the mouse mast cell line MC/9 [1] [pM] | PBMC + LPS (pM): IC50, inhibition of TNFα production in LPS stimulated C57BL/6 mouse PBMCs [1] [pM] | MC/9 (pM): EC50, proliferation of the mouse mast cell line MC/9 [2] [pM] | PBMC + LPS (pM): IC50, inhibition of TNFα production in LPS stimulated C57BL/6 mouse PBMCs [2] [pM]
B1 | 1780 | 0.38 | – | –
B2 | 346 | 0.18 | – | –
B3 | – | – | 541 | 0.73
B4 | 107 | 0.03 | – | –
B5 | – | – | 38 | 0.045
B6 | – | – | 47 | 0.077
